Measured values as given in publication PMC11432763, “Machine Learning-Driven Discovery and Evaluation of Antimicrobial Peptides from Crassostrea gigas Mucus Proteome” (Marine Drugs, 2024).

Columns and labels:
Experiment in all cases: Antimicrobial activity assay, broth microdilution, OD600
Type in all cases: cell-based
Conditions in all cases: peptide 0-50 μM in LB, inoculum 1 × 10^5 cells, 12 h, 37 °C, OD600, triplicate
[1] = tested on: Vibrio parahaemolyticus E151
Description: (§1) Candidate peptides were assessed for antimicrobial activity against Escherichia coli DH5α, Vibrio parahaemolyticus […], and Staphylococcus aureus ATCC 29213 using the method of Mao et al. with some modifications. […] LB broth without cells served as the blank control. […] Following a 12 h incubation at 37 °C, OD at 600 nm readings were taken in a microplate reader to assess bacterial growth inhibition. Data were presented as a heat map depicting antimicrobial efficacy against the three bacterial strains.

Escherichia coli DH5α = tested on: Escherichia coli DH5α
Description: as §1

[2] = tested on: Staphylococcus aureus ATCC 29213
Description: as §1

WKQIKFYVYNRILKKRK [P2, peptide … derived from Crassostrea gigas mucous proteins, selected by machine learning]
Effect against V. parahaemolyticus (in words) [1]: marked, dose-dependent bactericidal effects | Antimicrobial effect against E. coli (in words) (Escherichia coli DH5α): pronounced antimicrobial effects

CC[C@H](C)[C@H](NC(=O)[C@H](CCCCN)NC(=O)[C@H](Cc1ccc(O)cc1)NC(=O)[C@H](CCCCN)NC(=O)[C@H](CCCCN)NC(=O)[C@H](Cc1ccccc1)NC(=O)[C@H](CCCNC(=N)N)NC(=O)[C@H](CC(N)=O)NC(=O)[C@H](CCSC)NC(=O)[C@@H](NC(=O)[C@H](CC(C)C)NC(=O)[C@H](Cc1ccc(O)cc1)NC(=O)[C@@H](NC(=O)[C@H](C)NC(=O)[C@H](CCCNC(=N)N)NC(=O)[C@H](CCSC)NC(=O)[C@H](CCCCN)NC(=O)[C@H](CCCCN)NC(=O)[C@H](C)NC(=O)[C@H](CCCNC(=N)N)NC(=O)[C@H](CCCNC(=N)N)NC(=O)[C@@H](N)CCCNC(=N)N)[C@@H](C)CC)[C@@H](C)CC)C(=O)O [P4] (H-RRRAKKMRAIYLIMNRFKKYKI-OH; N-terminus and C-terminus assumed)
Effect against V. parahaemolyticus (in words) [1]: marked, dose-dependent bactericidal effects | Antimicrobial effect against E. coli (in words) (Escherichia coli DH5α): pronounced antimicrobial effects | Inhibitory effect on S. aureus growth (in words) [2]: most substantial inhibitory effect

CC(C)C[C@H](NC(=O)[C@@H](N)CC(C)C)C(=O)N[C@@H](CCCNC(=N)N)C(=O)N[C@@H](CCCNC(=N)N)C(=O)N[C@@H](CCCCN)C(=O)N[C@@H](Cc1ccccc1)C(=O)N[C@@H](Cc1ccccc1)C(=O)N[C@@H](Cc1ccccc1)C(=O)O [S2] (H-LLRRKFFF-OH; N-terminus and C-terminus assumed)
Antimicrobial effect against E. coli (in words) (Escherichia coli DH5α): slightly antimicrobial activity

LLFRRRLL [S1]
Antimicrobial effect against E. coli (in words) (Escherichia coli DH5α): slightly antimicrobial activity

Where a SMILES comes first, the peptide text is derived from it.
